The full ranking holds about 33,000 sequences; the median of “E-score (-0.5 to 0.5)” is about -0.035, and the highest 2% start at about 0.35. This is one part of the list.
Each sequence was assayed against T1, Pdr3 (UniProt P33200) (assay: PBM E-score (8-mer binding enrichment) (E-score (-0.5 to 0.5)); higher = stronger / more preferred TF binding; most listed sequences are background and not binding sites). Conditions: protein concentration: 200 nM; construct: GST-full length.
T1 sequence: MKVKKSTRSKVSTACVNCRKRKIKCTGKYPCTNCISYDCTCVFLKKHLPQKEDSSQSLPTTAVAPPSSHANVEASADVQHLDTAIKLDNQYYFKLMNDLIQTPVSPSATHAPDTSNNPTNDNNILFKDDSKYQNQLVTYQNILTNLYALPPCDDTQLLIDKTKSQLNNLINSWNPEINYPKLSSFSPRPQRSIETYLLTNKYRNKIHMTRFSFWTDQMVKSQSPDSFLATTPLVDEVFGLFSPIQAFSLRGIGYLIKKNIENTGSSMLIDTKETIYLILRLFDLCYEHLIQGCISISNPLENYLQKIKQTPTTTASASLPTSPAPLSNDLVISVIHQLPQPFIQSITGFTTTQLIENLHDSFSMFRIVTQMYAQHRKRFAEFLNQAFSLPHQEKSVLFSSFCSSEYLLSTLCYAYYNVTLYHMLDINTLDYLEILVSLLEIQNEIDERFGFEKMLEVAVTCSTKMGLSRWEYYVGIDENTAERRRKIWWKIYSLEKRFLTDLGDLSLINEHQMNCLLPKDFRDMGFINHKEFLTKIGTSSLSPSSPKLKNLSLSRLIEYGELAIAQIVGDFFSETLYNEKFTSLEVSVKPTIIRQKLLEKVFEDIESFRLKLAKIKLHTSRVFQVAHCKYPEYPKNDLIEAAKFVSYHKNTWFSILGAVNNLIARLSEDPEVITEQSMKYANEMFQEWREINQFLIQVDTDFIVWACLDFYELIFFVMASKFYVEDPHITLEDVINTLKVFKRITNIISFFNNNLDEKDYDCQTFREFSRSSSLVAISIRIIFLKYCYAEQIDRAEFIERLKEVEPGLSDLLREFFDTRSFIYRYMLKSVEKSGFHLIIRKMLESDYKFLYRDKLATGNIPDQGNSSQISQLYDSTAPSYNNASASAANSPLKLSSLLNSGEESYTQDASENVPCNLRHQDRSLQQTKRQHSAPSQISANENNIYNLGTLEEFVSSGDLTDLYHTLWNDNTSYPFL
Procedure: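 Universal 'all 10-mer' protein binding microarrays (Agilent AMADID 015681) probed with GST-tagged S. cerevisiae TFs (full-length or DBD) made by in vitro transcription/translation (PURExpress), about 100-200 nM. Bound TF was detected with fluorescent anti-GST. Each ungapped 8-mer (which stands for itself and its reverse complement) is scored by the PBM enrichment score (E-score), a modified Wilcoxon-Mann-Whitney statistic from -0.5 to +0.5, computed with the Universal PBM Analysis Suite. Scale: above 0.35 generally sequence-specific binding.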

Sequence | PBM E-score
GATGCCCA | 0.012
TACCAGGA | 0.0721
AACCTCAG | -0.0334
AAGCAAGG | -0.0242
ATGTAGCA | -0.039
TAAAGTCA | -0.101
GGAAGCAC | 0.143
AGGGGAAT | 0.187
CGACTCAC | -0.0132
CATATCCC | 0.107
CTAGAGAA | -0.0805
CTTAGAGA | -0.109
CGCAAAAG | -0.058
TATTGCAA | 0.286
CGTACCTA | -0.136
CTTCATTC | 0.00675
ATATCTGG | 0.0589
ACTACGAC | 0.0132
CTCCGCAG | 0.206
ATACGTGG | -0.0672
CGTAGAAG | -0.079
GGTTTGAC | 0.0587
TAAATCCA | -0.00223
CACCCTAC | -0.236
CTGGCGCC | 0.175

Sequence | PBM E-score
CGTGATCC | 0.145
CTGAGCTC | 0.0349
CGGGGAGA | 0.28
CCCTAAAG | -0.255
GCATATAA | -0.159
CTCGCTCA | 0.104
CTGCCTTA | -0.209
ATCGGATA | 0.325
CACATTGC | -0.0131
CGAAGGCC | -0.0056
AGAGCGGG | 0.134
AGGGCCCA | 0.11
ACCCATCA | -0.129
AACTGGCT | -0.25
GTCCCCTA | -0.143
CATACGAA | -0.00783
CTTCCCGC | 0.29
AGTGAACT | -0.0291
AATAAATC | -0.132
CCTAATCC | -0.068
AAAAGGCG | -0.0675
GATAAGGC | 0.0141
GAGTTGAA | -0.114
CGCACGCG | 0.0996
GAATGGGC | 0.186

Sequence | PBM E-score
ACTAAAGG | -0.189
ATTCACAA | 0.0868
CCCCTTCC | 0.136
ATCGGTGG | -0.0892
ATCCGATG | 0.248
CAGAGCAC | 0.0407
GGGGGCAC | -0.172
GATCTGGC | 0.0446
CCCATCAA | -0.05
TGCTGCCA | -0.11
CACCTTCC | 0.103
ATTCCACA | 0.204
AAAGTCTA | -0.209
GAGAACAA | 0.126
ACTGACGC | -0.328
AGGACTTG | -0.156
GCGAAGGA | -0.0237
GTATAGGA | -0.334
GCCCCAGC | 0.0198
AAGTTCCC | 0.14
GGTTCCAC | 0.0683
CGCCCGGA | 0.396
CACTGCAA | -0.00781
CCATAAGG | -0.378
TAAGGTCA | -0.258

Sequence | PBM E-score
AATCGGCG | 0.122
ACGTCGCT | -0.0789
ACGTAGAA | -0.0808
TGAATCAA | 0.187
ATCATCTC | 0.131
GTTCAACA | 0.0276
AAACACCA | -0.176
ACGGCCCA | -0.0128
AGTTTCCG | 0.452
CAGTCTAG | -0.304
ATTGGGCA | -0.131
CTAGGTCA | -0.289
ATCGCTGG | 0.0359
GATGCAGA | -0.0128
CTAACGAG | -0.0664
CCTGAACG | 0.0206
CCAACCGA | 0.0531
AGGCCCCA | -0.0982
ACCCCTAA | -0.0694
ACAAAGGT | -0.151
ACAAACGT | -0.179
ACACACAA | -0.0133
CGAGCGCC | 0.0241
CGAGGACC | -0.0343
AGCTGAGG | -0.197

Sequence | PBM E-score
CCGGTTCG | 0.217
AGCCATGC | -0.014
AGATGGGG | -0.176
AACTTAGA | -0.11
ACGAGCGT | -0.222
CGTCTGGA | -0.183
AGCTCACA | -0.0998
CACTAGAC | -0.00252
ACTGCTAA | -0.221
ATAGTGCA | 0.0132
GGATCCTA | 0.115
AGCTTTAT | -0.248
AAATAGCA | -0.193
GACATTGA | 0.155
CCATCCAG | -0.116
CTCGCGGA | 0.265
ATTTCCAA | -0.113
ATGTCGGG | 0.142
CAGATCGA | -0.162
AGGCCGAG | 0.193
TGGCTGAA | -0.118
GCACGAAC | 0.00062
GGAATCAC | 0.251
CCATCTAA | -0.0762
AGAGCACG | -0.0259

Sequence | PBM E-score
AACACTAA | -0.125
AACAACTG | 0.00536
GGAAATGA | 0.214
GATAAGGA | 0.00205
AATCACGT | 0.0816
CGCTAGCA | -0.126
ATAATGCC | 0.205
TACTCTGA | -0.188
CATTTCCC | 0.203
CGTCCTAA | -0.14
GCGTGCAC | 0.0796
CGCGTTAC | 0.034
GACCTAGA | -0.115
CATAACGG | -0.0713
GTTAAAAC | -0.0999
TTCTAAAA | -0.0694
AAGATGCC | 0.0564
CTCCAAAG | -0.182
AGGGGAAC | -0.0871
ACTTTAGC | -0.0115
CCTACTCG | 0.101
CATAAACC | 0.0229
AGGTATGG | 0.0193
ATGTCTAC | -0.213
AAAAAACT | -0.245

Sequence | PBM E-score
GATACATC | -0.101
ATGTTGGA | 0.167
GCTTTCCA | -0.0892
GGTTTTCA | 0.0386
AAAATACA | -0.0643
CGAATAGC | -0.149
GAAGGGCA | 0.0377
CAGTCACC | -0.156
ACCTTGTG | -0.065
ATAACAAA | 0.0706
AGACAGGG | -0.102
ACAACTTA | -0.111
GTCCGTTA | 0.321
AAGTAGCA | -0.142
CCTGTCAG | -0.145
ACTGCGCC | -0.225
ATGGAACC | 0.0373
ACGGGTCT | 0.0949
AGGATTTC | 0.114
CTTCCTGC | -0.232
CAGTGCTA | 0.0103
AAATTAAG | 0.0725

Source: the supplement of paper PMC3334620
